Measured values: the antibiotic and cytotoxicity screens of Wong et al. (2023)
Some of the results follow.

Assays:
HSkMC = human skeletal muscle cells; assay: cytotoxicity call (relative viability < 0.9); details: 10 µM
HepG2 = assay: cytotoxicity call (relative viability < 0.9); details: 10 µM
S. aureus RN4220 = assay: growth inhibition call (relative growth <= 0.2); details: 50 µM

Compound	cytotoxicity call (HSkMC)	cytotoxicity call (HepG2)	growth inhibition call (S. aureus RN4220)
Cc1ccccc1S(=O)(=O)N1C[C@H](O)COC[C@@H]2O[C@@H](CC(=O)NCCc3ccccc3)CC[C@H]21	inactive	inactive	inactive
C[C@@H]1CN([C@H](C)CO)C(=O)c2c(c3ccccc3n2C)-c2ccccc2CO[C@H]1CN(C)C(=O)NC1CCCCC1	inactive	inactive	inactive
N#CCCS(=O)(=O)c1ccc(N)cc1	inactive	inactive	inactive
C[C@H](CO)N1C[C@H](C)[C@H](CN(C)S(C)(=O)=O)Oc2ccc(NS(C)(=O)=O)cc2C1=O	inactive	inactive	inactive
C[C@@H]1CN([C@H](C)CO)C(=O)c2cc(NS(=O)(=O)c3ccccc3)ccc2O[C@H]1CN(C)Cc1ccncc1	inactive	inactive	inactive
C[C@@H]1CN([C@H](C)CO)C(=O)c2ccccc2-c2ccccc2CO[C@@H]1CN(C)C(=O)N[C@H](C)c1ccccc1	inactive	inactive	inactive
C[C@@H]1CCCCO[C@@H](CN(C)CC2CC2)[C@@H](C)CN([C@H](C)CO)C(=O)c2cc(NC(=O)c3ccccc3)ccc2O1	inactive	inactive	inactive
C[C@H](CO)N1C[C@H](C)[C@H](CN(C)S(C)(=O)=O)Oc2c(NC(=O)c3nc4ccccc4s3)cccc2C1=O	inactive	inactive	inactive
NCc1nnnn1-c1ccc(F)cc1	inactive	inactive	inactive
C[C@@H]1CN([C@@H](C)CO)C(=O)c2cccc(NC(=O)c3ccncc3)c2O[C@@H]1CN(C)S(=O)(=O)c1ccccc1	inactive	active	inactive
C[C@@H]1CN([C@@H](C)CO)C(=O)CCCn2nncc2CO[C@@H]1CN(C)S(=O)(=O)c1ccc(-c2ccccc2)cc1	inactive	inactive	inactive
CC(C)[C@@H](N)c1nc2c([nH]1)CCCC2	inactive	inactive	inactive
C[C@@H]1CCCCO[C@@H](CN(C)C(=O)NC2CCCCC2)[C@H](C)CN([C@H](C)CO)C(=O)c2cc(NS(=O)(=O)c3ccccc3)ccc2O1	inactive	inactive	inactive
C[C@@H]1CN([C@H](C)CO)C(=O)c2cc(NS(=O)(=O)c3ccccc3)ccc2O[C@H]1CN(C)S(=O)(=O)c1cccs1	inactive	inactive	inactive
CNC(=O)C(=O)NC[C@H]1OCCN1S(=O)(=O)c1ccccc1	inactive	inactive	inactive
C[C@H](CO)N1C[C@H](C)[C@H](CN(C)Cc2ccc(-c3ccccc3)cc2)Oc2ccc(NC(=O)CCCCCC(=O)Nc3ccccc3N)cc2CC1=O	inactive	active	inactive
O=C(C[C@H]1C[C@H]2c3cc(NC(=O)NC4CCCC4)ccc3O[C@H]2[C@@H](CO)O1)NCCN1CCCCC1	inactive	inactive	inactive
COc1cc2ccc(=O)oc2c(O[C@H]2O[C@@H](CO)[C@@H](O)[C@@H](O)[C@@H]2O)c1O	inactive	inactive	inactive
CC(C)[Si](C#CCCCC#N)(O[C@H](c1ccccc1)c1cn(Cc2cccc(Cl)c2)nn1)C(C)C	inactive	inactive	active
O=C(Nc1cccc2cccnc12)[C@H]1[C@@H](c2ccc(Br)cc2)CC(=O)N1C(=O)OCc1ccccc1	inactive	inactive	inactive
O=C(C[C@@H]1C[C@@H]2c3cc(NS(=O)(=O)c4ccc(F)cc4)ccc3O[C@@H]2[C@@H](CO)O1)NCc1ccccc1	inactive	inactive	inactive
C[C@@H]1CCCCO[C@H](CN(C)S(=O)(=O)c2ccc(F)cc2)[C@@H](C)CN([C@H](C)CO)C(=O)c2cc(NS(C)(=O)=O)ccc2O1	inactive	inactive	inactive
C=CCN(C#N)c1nc(N(C)C)nc(N(C)C)n1	inactive	inactive	inactive
Cc1ccc(S(=O)(=O)Nc2cccc3c2O[C@H](CN(C)CC2CC2)[C@@H](C)CN([C@@H](C)CO)C3=O)cc1	inactive	inactive	inactive
C[C@@H]1CN([C@H](C)CO)C(=O)c2cc(NC(=O)Cc3ccccc3)ccc2O[C@@H]1CN(C)S(=O)(=O)c1cn(C)cn1	inactive	inactive	inactive
C[C@@H]1CCCCO[C@@H](CN(C)S(=O)(=O)c2ccc(Cl)cc2)[C@H](C)CN([C@@H](C)CO)C(=O)c2cc(NC(=O)Nc3ccc4c(c3)OCO4)ccc2O1	inactive	inactive	inactive
NC[C@H](c1ccco1)N1CCc2ccccc2C1	inactive	inactive	inactive
